The results in this text go back to patent US11542275B2, “Substituted imidazolidin-2-one derivatives as PRMT5 inhibitors” (Aurigene Discovery Technologies Limited, priority 2018, dated 2023).

What is called IC50 is the concentration that gives 50% inhibition. Higher therefore signals weaker potency in that assay.

The target of the assay is PRMT5/MEP50 Complex (Homo sapiens (Human), UniProt O14744). Kind of assay: PRMT5 inhibition based on TR-FRET assay. The format is biochemical. Particulars: 32 nM PRMT5:MEP50 complex, 50 nM Histone-H4 peptide, 1 μM SAM, 90 minutes at room temperature. The source says:
Protein arginine methyltransferase 5 (PRMT5) is a type II arginine methyltransferase that catalyze mono- and symmetric demethylation on arginine residues of histone or non-histone proteins in presence of S-adenosylmethionine (AdoMet or SAM) a cofactor responsible for donating the methyl group. PRMT5 is reported to be overexpressed in several human cancers. To identify compounds that inhibit the PRMT5 and decrease its activity, a TR-FRET based assay has been established. Time-resolved fluorescence resonance energy transfer (TR-FRET) HTS assays are homogeneous proximity assays where the interaction of two dye-labeled binding partners is detected by the energy transfer between a donor and an acceptor dye, and the subsequent light emission by the acceptor dye. PRMT5 catalyzes Histone H4 peptide which is biotin tagged to the Lysine amino acid at carboxyl end, in presence of S-adenosyl-1-methionine (SAM) to methylate the peptide. The antibody specific to mono methylated H4 peptide (H4R3) with Ig conjugate binds to the methylated peptide, indirectly binding to the Europium lanthanide. […]
The compound dilutions were prepared as 7.5% DMSO stock solutions in assay buffer. […] The plates were then read on Victor-3 with Excitation at 340 nm and Emissions collected at 615 and 665 nm in TR-FRET protocol. […]
For orientation: In TR-FRET formats the signal depends on donor and acceptor labels being close together.

The compound `CC(C)(C(=O)O)C1CCN(c2ccc(CN3CCN(C[C@H](O)CN4CCc5ccccc5C4)C3=O)nc2)CC1` [Compound 14, (R)-2-(1-(6-((3-(3-(3,4-dihydroisoquinolin-2(1H)-yl)-2-hydroxypropyl)-2-oxoimidazolidin-1-yl)methyl)pyridin-3-yl)piperidin-4-yl)-2-methylpropanoic acid] registered an IC50 of 116 nM. This counts as sub-micromolar. In the case of `O=C1N(Cc2ccc(N3C4CCC3COC4)cn2)CCN1C[C@H](O)CN1CCc2ccccc2C1` [Compound 18, 1-((5-(3-oxa-8-azabicyclo[3.2.1]octan-8-yl)pyridin-2-yl)methyl)-3-((R)-3-(3,4-dihydroisoquinolin-2(1H)-yl)-2-hydroxypropyl)imidazolidin-2-one] it was 25 nM.
